± gives the uncertainty stated by the source. The sequences are guide strands of siRNAs; only the seed at positions 2 to 7 varies.
Experiments:
[1] = tested on: 3LL; test: cell viability relative to siNT1 control; higher = less toxic; conditions: concentration: 10 nM; 96 h; Mus musculus;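 also: Luminescence-based viability of cells reverse transfected in 384-well plates with lipid-complexed siRNAs built on a non-toxic 19mer backbone whose passenger strand carries 2′-O-methyl groups at positions 1 and 2, triplicates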
[2] = tested on: M565; test: cell viability relative to lipid-only control; HeyA8 human ovarian and H460 human lung cancer; M565 mouse liver and 3LL mouse lung cancer; siNT1 is a non-toxic control siRNA; higher = less toxic; conditions: concentration: 10 nM; 96 h; Mus musculus
Protocol: (§1)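 Arrayed screen of 4096 siRNA duplexes, each carrying one of all possible 6mer seeds at guide-strand positions 2-7 in a fixed neutral 19mer scaffold (constant flanks: U at position 1, then ACAUGUAAACCA, plus a 3' AA overhang). The passenger strand is 2'-O-methylated at positions 1-2 so only the guide strand loads into RISC. Duplexes were reverse-transfected at 10 nM with RNAiMAX in triplicate in 384-well plates; viability was read by CellTiter-Glo ATP content 96 h after transfection. Values are % viability normalised to lipid-only wells (HeyA8, H460, M565) or to siNT1 (3LL).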

[3] = tested on: HeyA8; test: as above; conditions: concentration: 10 nM; 96 h; Homo sapiens
Protocol: as §1

[4] = tested on: H460; test: as above; conditions: concentration: 10 nM; 96 h; Homo sapiens
Protocol: as §1
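For cell viability relative to lipid-only control in this document: reverse lipid transfection in 384-well plates, in triplicate, of duplexes on a non-toxic 19mer backbone with passenger strand 2′-O-methylated at positions 1 and 2, luminescence viability read-out.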

Sequence	cell viability [1]	cell viability [2]	cell viability [3]	cell viability [4]
UAAGUGCACAUGUAAACCAAA	76.6 ± 7.2%	103 ± 15%	56.2 ± 9.9%	63.1 ± 11%
UGACAACACAUGUAAACCAAA	13.3 ± 6.2%	30.8 ± 3.8%	71.47 ± 0.69%	57.4 ± 14%
UGGGGGUACAUGUAAACCAAA	14.8 ± 7.1%	9.78 ± 4.9%	1.62 ± 0.32%	5.49 ± 1%
UGGACAUACAUGUAAACCAAA	79.8 ± 3.4%	15.4 ± 6.2%	64.3 ± 5.6%	54.1 ± 5.4%
UACAGUGACAUGUAAACCAAA	88.5 ± 12%	48.3 ± 7.3%	94.9 ± 4.6%	89.8 ± 19%
UCGCCAAACAUGUAAACCAAA	101 ± 20%	65.1 ± 2.2%	94.5 ± 7.8%	85 ± 20%
UGAGCCUACAUGUAAACCAAA	10.1 ± 3.1%	4.75 ± 0.97%	57.1 ± 1.8%	52.5 ± 6.5%
UGCUAUCACAUGUAAACCAAA	32.9 ± 2.5%	64.8 ± 5%	7.87 ± 3.1%	30.3 ± 1.5%
UUCCCCAACAUGUAAACCAAA	52.2 ± 19%	26.8 ± 7.8%	78.2 ± 10%	98.7 ± 19%
UUAUUGUACAUGUAAACCAAA	50.6 ± 4.7%	58.7 ± 7.2%	69.2 ± 6.1%	73.6 ± 6.1%
UACGUGCACAUGUAAACCAAA	43.1 ± 8.6%	6.3 ± 1.5%	15.7 ± 1.2%	48.1 ± 3.4%
UCGUCGAACAUGUAAACCAAA	88.8 ± 11%	56.4 ± 7.2%	78.9 ± 9.9%	83.8 ± 22%
UCGGUAGACAUGUAAACCAAA	90 ± 16%	76.1 ± 11%	87.2 ± 3.4%	76.1 ± 11%
UGGACGGACAUGUAAACCAAA	53.2 ± 3.9%	16.3 ± 5.7%	40.4 ± 6%	26.1 ± 3.2%
UAGGGACACAUGUAAACCAAA	59 ± 12%	4.76 ± 1.1%	14 ± 0.99%	16.7 ± 2.7%
UACUUGAACAUGUAAACCAAA	66.2 ± 6%	45.4 ± 5.7%	66.5 ± 3.3%	65.9 ± 2.5%
UUGUCCCACAUGUAAACCAAA	16.8 ± 3.9%	5.61 ± 0.29%	20.2 ± 0.96%	24.7 ± 3.9%
UAUGCUUACAUGUAAACCAAA	88.9 ± 5.2%	61.4 ± 5.6%	70.8 ± 4.4%	55.1 ± 2.3%
UGCGUCUACAUGUAAACCAAA	54.2 ± 5.1%	16 ± 4.6%	50.2 ± 2.8%	55.9 ± 2.8%

Sequence	cell viability [1]	cell viability [2]	cell viability [3]	cell viability [4]
UUAUAGCACAUGUAAACCAAA	16 ± 3%	12.1 ± 1.7%	31.1 ± 6.5%	15.9 ± 0.76%
UAUGUACACAUGUAAACCAAA	59.8 ± 2.7%	63.3 ± 12%	54.5 ± 6.7%	46.2 ± 6.4%
UGGCAAAACAUGUAAACCAAA	72.1 ± 5.2%	52.4 ± 8.1%	34.7 ± 2.2%	72.1 ± 4.5%
UUGAUUUACAUGUAAACCAAA	83.8 ± 3.7%	95.5 ± 16%	92.6 ± 6.6%	65.2 ± 7.4%
UAGACCGACAUGUAAACCAAA	73.8 ± 6.1%	43.6 ± 4.1%	78.6 ± 2%	75.3 ± 15%
UAUGAAUACAUGUAAACCAAA	107 ± 11%	98.7 ± 5.5%	98.2 ± 4.5%	79 ± 6.3%
UGGCAAUACAUGUAAACCAAA	54.1 ± 8%	18.1 ± 2.1%	51.8 ± 5.9%	65.4 ± 15%
UUAACCAACAUGUAAACCAAA	91.7 ± 4.3%	84.6 ± 5.5%	92.3 ± 9.2%	85.8 ± 21%
UUACGAAACAUGUAAACCAAA	105 ± 15%	103 ± 14%	98.9 ± 5.1%	97.9 ± 16%
UAAGCCUACAUGUAAACCAAA	77.9 ± 8.3%	41.2 ± 6.2%	68.5 ± 8.2%	90 ± 26%
UAUUUGUACAUGUAAACCAAA	79 ± 7.8%	85.5 ± 22%	88.7 ± 17%	87.8 ± 5%
UUUUUAUACAUGUAAACCAAA	93 ± 7.7%	99.8 ± 9.8%	82.5 ± 16%	61.4 ± 9.1%
UCGAUACACAUGUAAACCAAA	83.1 ± 18%	74.5 ± 8.5%	83.3 ± 7.8%	96.8 ± 5.8%
UGGGGGGACAUGUAAACCAAA	81.5 ± 9.7%	8.4 ± 2%	4.65 ± 0.44%	16.1 ± 0.49%
UGUCAGCACAUGUAAACCAAA	8.02 ± 4.9%	9.42 ± 1.1%	31.9 ± 1.5%	35.4 ± 6.8%
UCUAGACACAUGUAAACCAAA	91.1 ± 8.2%	78.4 ± 16%	86.7 ± 10%	57.8 ± 9%
UCGACGCACAUGUAAACCAAA	76.9 ± 12%	64 ± 5%	72 ± 4.9%	61 ± 1.9%
UCUUUCCACAUGUAAACCAAA	92 ± 9.7%	93.6 ± 24%	22.5 ± 2.7%	42.8 ± 4.3%
UUGCCAUACAUGUAAACCAAA	61.8 ± 9.7%	31 ± 4.5%	28.4 ± 2.4%	42.6 ± 1.7%

Sequence	cell viability [1]	cell viability [2]	cell viability [3]	cell viability [4]
UUUAGGUACAUGUAAACCAAA	89.4 ± 7.5%	85.9 ± 7.6%	94.1 ± 8.6%	71.6 ± 5.7%
UGUAGCAACAUGUAAACCAAA	67.9 ± 5.3%	28.4 ± 2.5%	70.3 ± 9.7%	61.3 ± 8.9%
UAAACCGACAUGUAAACCAAA	93.8 ± 8.3%	76 ± 11%	92.2 ± 21%	79.5 ± 26%
UGGCCUAACAUGUAAACCAAA	85.2 ± 5%	40.6 ± 4.9%	34.7 ± 3.6%	83.8 ± 6.1%
UGCACGCACAUGUAAACCAAA	43.8 ± 11%	92.1 ± 2.3%	80.5 ± 12%	50.7 ± 4%
UUAGAGCACAUGUAAACCAAA	11.2 ± 4.9%	90.1 ± 10%	75.2 ± 4.8%	76.7 ± 6.1%
UAUGUAAACAUGUAAACCAAA	106 ± 19%	82.3 ± 7.9%	98.3 ± 2.5%	63.7 ± 10%
UGGCCGGACAUGUAAACCAAA	37.8 ± 2.9%	37.6 ± 2.3%	5.79 ± 0.84%	17.3 ± 1.2%
UUCGUGGACAUGUAAACCAAA	78.8 ± 14%	46 ± 6.7%	50.1 ± 10%	49.7 ± 5%
UGGCUGAACAUGUAAACCAAA	27.5 ± 5%	23 ± 3.3%	23.1 ± 2.1%	37.8 ± 6.2%
UCUAGCUACAUGUAAACCAAA	96 ± 10%	67.7 ± 15%	62.2 ± 4%	40.7 ± 3%
UACAGCGACAUGUAAACCAAA	90.6 ± 6.7%	70.4 ± 16%	92.7 ± 6.5%	82.7 ± 18%
UUAGGAUACAUGUAAACCAAA	57.2 ± 2.4%	78.3 ± 6.3%	60.62 ± 0.45%	38.3 ± 7.3%
UGUAGGAACAUGUAAACCAAA	82.3 ± 9%	32.9 ± 2.1%	24.6 ± 5.9%	59.9 ± 8%
UCUCGUGACAUGUAAACCAAA	88.5 ± 13%	70.8 ± 12%	84.7 ± 7.4%	59.4 ± 10%
UGCUGGUACAUGUAAACCAAA	36.3 ± 14%	37.5 ± 7.8%	37.3 ± 2%	74 ± 14%
UGCACCUACAUGUAAACCAAA	59 ± 3%	48.8 ± 1.9%	64.4 ± 4.2%	71.7 ± 12%
UGUAAGUACAUGUAAACCAAA	57.6 ± 13%	39.8 ± 2%	37.8 ± 1%	40.5 ± 2.8%
UGGCCAUACAUGUAAACCAAA	36 ± 9.3%	9.53 ± 8.5%	26.4 ± 5.8%	54.2 ± 5.1%

— the supplement of paper PMC6206098
